These results are taken from PubChem BioAssay AID488969 (Vanderbilt High Throughput Screening Facility, 2010).

SMILES strings stand for the structures. The full ranking holds about 110,000 compounds; the median of “z-score” is about -0.1, and the highest 2% start at about 2. Some of the results follow. Calls of active or inactive are those of the source.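 How the source made its calls: active means z-score in the third read window above 3 or below -3; inactive means the rest.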

The assay has as its target Metabotropic glutamate receptor 8 (Rattus norvegicus) (UniProt P70579). The experiment in a line: rat mGluR8 modulators via GIRK flux, primary screen, cell-based, thallium flux, HTS (AID 488969). Conditions: HEK293 rat mGluR8, GIRK (G protein-gated inwardly rectifying potassium channel) thallium flux, FluoZin2; at 10 µM; stronger effect = higher value; submaximal glutamate (EC20) added with thallium.
UniProt P70579, sequence (P70579 whole entry, looked up): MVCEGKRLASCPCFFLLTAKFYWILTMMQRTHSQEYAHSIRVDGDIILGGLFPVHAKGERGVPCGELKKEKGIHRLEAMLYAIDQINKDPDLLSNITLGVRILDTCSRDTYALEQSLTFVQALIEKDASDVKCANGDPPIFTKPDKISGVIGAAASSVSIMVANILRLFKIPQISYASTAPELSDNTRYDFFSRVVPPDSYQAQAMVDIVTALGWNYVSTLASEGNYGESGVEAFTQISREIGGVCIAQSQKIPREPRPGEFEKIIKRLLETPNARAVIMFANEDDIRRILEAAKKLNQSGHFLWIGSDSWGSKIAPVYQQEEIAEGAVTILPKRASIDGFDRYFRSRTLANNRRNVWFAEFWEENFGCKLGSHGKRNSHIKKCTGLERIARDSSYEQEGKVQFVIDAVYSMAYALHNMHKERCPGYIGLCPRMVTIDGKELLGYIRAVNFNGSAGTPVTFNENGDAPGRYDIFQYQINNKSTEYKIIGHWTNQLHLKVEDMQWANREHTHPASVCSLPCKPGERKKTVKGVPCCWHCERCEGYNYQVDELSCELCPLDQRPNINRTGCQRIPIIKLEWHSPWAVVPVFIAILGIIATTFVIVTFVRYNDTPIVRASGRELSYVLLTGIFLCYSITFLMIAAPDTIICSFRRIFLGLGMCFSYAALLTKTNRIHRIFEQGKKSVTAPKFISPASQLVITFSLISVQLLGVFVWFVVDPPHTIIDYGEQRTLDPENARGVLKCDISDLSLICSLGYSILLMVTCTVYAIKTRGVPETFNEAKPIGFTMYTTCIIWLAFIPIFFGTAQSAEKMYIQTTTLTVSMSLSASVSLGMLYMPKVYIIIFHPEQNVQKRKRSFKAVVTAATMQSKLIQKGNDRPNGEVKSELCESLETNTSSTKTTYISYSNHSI
Regarding `CC1(c2cnc(Nc3ccccc3)s2)CCC(=O)O1` (stereo not drawn), the z-score is -0.037.

`CC1=C(C(=O)Nc2ccccc2)C(c2ccco2)C(C#N)=C(SCC(N)=O)N1` (stereo not drawn) gave a z-score of -0.283.

Turning to `Cc1cccc(Nc2nc3ccccc3s2)c1C`, the z-score worked out at 0.572.

As for `Cc1cc(C(F)F)n2nc(C(=O)Nc3ccc(S(=O)(=O)NC45CC6CC(CC(C6)C4)C5)cc3)nc2n1`, the z-score amounted to 0.0197.

The molecule `Cc1cnc(C(=O)Nc2cccc3ncccc23)cn1` registered a z-score of 0.761.

In turn, `Cc1cc(C)cc(-n2c(C)cc(/C=N/NC(=O)c3cccc([N+](=O)[O-])c3C)c2C)c1` had a z-score of -0.128.

For the molecule `CCCCn1c(NC(=O)c2ccccc2Cl)c(C#N)c2nc3ccccc3nc21`, the z-score is -0.783.

The molecule `CC1CC(C(F)(F)F)n2nc(C(=O)O)cc2N1` (stereo not drawn) displayed a z-score of 0.897.

The molecule `C(#Cc1ccccc1)C[N+]1(CC#Cc2ccccc2)CCCC1` came in with a z-score of -0.343.

Molecule `Cc1cc(NC(=O)c2cncc(Br)c2)no1` showed a z-score of -0.316.

`CC1(C)CC2CC(C)(CN2C(=O)COC(=O)c2ccc(Cl)cc2N)C1` (stereo not drawn) came in with a z-score of 0.198.

`CNc1cc(-n2nc(C)cc2-c2ccccc2)ncn1` came in with a z-score of -0.127.

The molecule `Cc1cc(C(=O)CSc2nc(N)cc(=O)[nH]2)c(C)n1-c1cccc(F)c1` displayed a z-score of -0.14.

In the case of `CC(=O)Cc1nsc(NC(=O)c2cc(-c3ccc(Cl)c(Cl)c3)oc2C)n1`, the z-score was -0.22.

In turn, `C/C(=N/OCO/N=C(\C)c1ccccc1F)c1ccccc1F` registered a z-score of -0.559.

In turn, `COC(=O)C(=Cc1ccc(OCc2ccc([N+](=O)[O-])cc2)c(OC)c1)C(=O)OC` displayed a z-score of -0.0754.

`Cc1ccc(C)c(NC(=O)C(Sc2ncnc3ccccc23)c2ccccc2)c1` (stereo not drawn) displayed a z-score of -0.161.

`CCOC(=O)c1cccc(NS(=O)(=O)c2ccc(NC(C)=O)cc2)c1`: the z-score is -0.337.

In the case of `O=C(Cn1c(=O)n(CC(=O)NCc2ccccc2)c2ccccc21)NCc1ccccc1`, the z-score is -0.0235.

In turn, `CCN(CC)S(=O)(=O)c1ccc(NC(=O)c2cc(C(=O)OC)cc([N+](=O)[O-])c2)cc1` returned a z-score of -0.729.

Molecule `Cc1cccc(NS(=O)(=O)c2cnc(Cl)c(Br)c2)n1` yielded a z-score of -0.147.

Molecule `Cc1cc(C)c(NC(=O)C(C)OC(=O)c2cc(Br)c(Br)s2)c(C)c1` (stereo not drawn) displayed a z-score of -0.213.

Turning to `Cc1csc(NC(=O)CSc2nnc(Cc3cccn3C)n2-c2ccc(F)cc2)n1`, the z-score is -0.293.

Turning to `O=C(CSc1cccc(C(F)(F)F)c1)Nc1ccc(Cl)cc1Cl`, the z-score was -0.131.

As to `CCOc1cc(C(=O)NCCN2CCOCC2)cc(OCC)c1OCC`, the z-score was -0.462.

Molecule `CCSC1=NC(C)(C)C=C(C)N1` came in with a z-score of -0.0899.

`Cc1ccnc(NS(=O)(=O)c2ccc(N3C(=O)c4c(Cl)c(Cl)c(Cl)c(Cl)c4C3=O)cc2)n1` returned a z-score of -0.03.

As for `O=C(Nc1ccccc1C(=O)N1CCCCCC1)c1cccc(S(=O)(=O)N2CCOCC2)c1`, the z-score was -0.166.

In the case of `CC(=O)c1sc(NC(=O)C(C)(C)C)nc1C`, the z-score was 1.3.

Consider `Cc1nc2ncnn2c(C)c1CCC(=O)NCCCN1CCN(c2cccc(Cl)c2)CC1`, for which the z-score was -0.195.

Regarding `O=[N+]([O-])c1cccnc1NCCNc1ncc(C(F)(F)F)cc1Cl`, the z-score is -0.0413.

The molecule `COc1ccc2nc(C)cc(N3CCOCC3)c2c1` displayed a z-score of -0.176.

The molecule `Cc1ccc(-c2nc(=S)c3c(n2CC2CCCO2)CC(C)(C)OC3)cc1` (stereo not drawn) yielded a z-score of -0.282.

As for `Cc1nc(-c2cccc(NS(=O)(=O)c3ccccc3)c2)cs1`, the z-score was 0.352.

In the case of `COc1ccc(N2C(=O)C3CCCN3C2c2cccc(C)c2)cc1Cl` (stereo not drawn), the z-score is -0.737.

In turn, `Cc1ccc(OCCSCc2nnc(NC(=O)Nc3cccc(Cl)c3)s2)cc1` had a z-score of -0.203.

In turn, `COc1ccc(NC(=O)c2ccccc2SC)cc1OC` yielded a z-score of -0.00811.

`O=C(NCc1cccs1)c1cccnc1Cl`: the z-score is -0.317.

Regarding `O=C(NCc1ccco1)c1ccc(S(=O)(=O)N2CCCc3ccccc32)cc1`, the z-score is -0.674.

For the molecule `O=C(COc1ccc(Br)cc1)N1CCN(c2ccccc2)CC1`, the z-score is -0.153.

On to `CN(CC1COc2ccccc2O1)C(=S)Nc1ccccc1` (stereo not drawn), for which the z-score was -0.584.

Take `COc1ccccc1NC(C)C(=O)N/N=C/c1ccccc1OCc1cccc(Br)c1` (stereo not drawn): the z-score is -0.17.

Molecule `CCN(CC)S(=O)(=O)c1ccc(NCc2ccccc2)nc1` had a z-score of -0.962.

Regarding `CCCCN(CCCC)CCNC(=O)CNC(=O)c1cccs1`, the z-score came to 0.14.

Molecule `Clc1cccc(NC2=NCCC2)c1` had a z-score of -0.147.

With `COc1ccc(-c2csc(NC(=S)NC(=O)/C=C/c3ccco3)n2)cc1OC`, the z-score is -0.318.

Turning to `Cc1cc(C(=O)N2CCN(C(=O)C3CCCO3)CC2)no1` (stereo not drawn), the z-score is 0.0683.

For `CC(=C1C(=O)c2ccccc2C1=O)N1CCc2ccccc2C1`, the z-score was -0.182.

The molecule `NS(=O)(=O)c1ccc(CCNC(=O)Nc2ccc(Cl)c(Cl)c2)cc1` came in with a z-score of -0.0212.

For the molecule `O=C1C2C3C=CC(C4CC34)C2C(=O)N1/N=C/c1ccc(-c2ccc(Cl)cc2[N+](=O)[O-])o1` (stereo not drawn), the z-score was -0.0581.

Regarding `CN(C)CCSc1nnc2sc3ccccc3n12`, the z-score is -0.0362.

The molecule `CNC(=S)N/N=C/c1ccc2c(c1)OCCO2` showed a z-score of 0.205.

On to `O=C(COC(=O)COc1ccccc1[N+](=O)[O-])NC1CCCC1`, for which the z-score is -0.559.

Molecule `CC1CCN(CCOc2cccc(Br)c2)CC1` gave a z-score of 0.339.

`O=C(Oc1nsnc1N1CCOCC1)N1CCCCC1` yielded a z-score of 0.858.

Consider `Cc1cccc(NC(=O)CSc2nnc(CCC(=O)Nc3ccc(C)c(Cl)c3)n2C)c1`, for which the z-score is -0.116.

As to `CCc1ccc(NC(=O)CSc2nc3cc(C(=O)OC)ccc3c(=O)n2CC2CCCO2)cc1` (stereo not drawn), the z-score turned out to be 0.287.

For `O=S1(=O)CCC(N2CCOCC2)C1` (stereo not drawn), the z-score was determined as 0.485.

`O=C(c1ccc(CNS(=O)(=O)c2ccccc2)cc1)N1CCN(Cc2ccccc2)CC1` returned a z-score of 0.0691.

The molecule `CC(=O)c1c(C(C)=O)c(C)n(NC(=O)c2ccccc2Cl)c1C` showed a z-score of 0.687.

For `O=C(CSc1nnc(Cc2ccccc2)o1)Nc1ccc(Br)cn1`, the z-score came out at 0.507.

Turning to `COc1ccc(S(=O)(=O)NC2CC3CCC2C3)cc1Cl` (stereo not drawn), the z-score worked out at 0.912.

With `CO/N=C/c1ccc(Sc2ccccc2)c([N+](=O)[O-])c1`, the z-score was -0.0163.

The molecule `Cc1ccccc1C(=O)N/N=C/c1ccncc1` gave a z-score of 0.000549.

Take `CCN(CC)S(=O)(=O)c1cc([N+](=O)[O-])ccc1NNC(=O)Nc1ccc(Cl)c(Cl)c1`: the z-score is 1.1.

For `O=C(CSCc1ccc(F)cc1)NCc1ccco1`, the z-score was -0.134.

`Cc1cccc(-n2c(N)cc(=O)nc2SC(C)C(=O)NC2CCCCC2)c1` (stereo not drawn) came in with a z-score of 0.676.

Molecule `CCOC(=O)c1c(-c2ccccc2)csc1NC(=O)c1cccc(N2C(=O)CCC2=O)c1` displayed a z-score of 0.129.

`Cc1cccc(N(C)C(=O)c2cc3cc4ccc(C)cc4nc3o2)c1`: the z-score was 0.275.

The molecule `Cc1c(Cl)c(C(=O)N2CCCc3ccccc32)nn1C` showed a z-score of -0.0791.

`CCOc1ccc(-n2cnnn2)cc1S(=O)(=O)NCc1ccccc1` showed a z-score of 0.825.

Turning to `COc1ccc(NC(C#N)c2ccccc2OCc2ccccc2)cc1` (stereo not drawn), the z-score is -0.89.

Take `O=C(/C=C/c1cnc2ccccc2n1)NC12CC3CC(CC(C3)C1)C2`: the z-score was -0.473.

`c1ccc(CCSc2nccn2-c2ccccc2)cc1`: the z-score was -0.227.

As to `Cc1ccc(C)c(Cn2c(=O)c3c(nc4n3CCN4Cc3ccco3)n(C)c2=O)c1`, the z-score was -0.0936.

As to `O=C(NCCCN1CCCC1=O)c1ccccc1NS(=O)(=O)c1ccc(F)cc1`, the z-score was -0.275.

Molecule `CCCOC(=O)c1c(NC(=O)/C=C/c2cnn(C)c2C)sc(C(=O)OCC)c1C` returned a z-score of 0.141.

With `O=C(Cn1c2ccccc2c(=O)c2ccccc21)N/N=C/c1cc([N+](=O)[O-])ccc1N1CCCCC1`, the z-score was 0.0373.

As to `Cc1cc(/C=N/NC(N)=O)c(C)c(CO)c1`, the z-score was -0.0977.

The molecule `O=C(Cc1cccs1)NCc1ccccc1F` yielded a z-score of 0.54.

The molecule `COc1ccc(C(=O)N2CCN(C3CCCCC3)CC2)c(OC)c1` gave a z-score of -0.579.

As for `COc1ccc(NC(=O)Cn2nnc(C(=O)NCc3ccco3)c2N)c(OC)c1`, the z-score was determined as 0.217.

On to `COc1ccccc1NC(=O)N(Cc1ccccc1)C1=NCC(C)S1` (stereo not drawn), for which the z-score was -1.04.

Molecule `CCCc1cc(=O)[nH]c(SCC(=O)NC2CCCCC2)n1` showed a z-score of -0.031.

As to `NC(=S)Nc1cccc2cnccc12`, the z-score is 0.25.

In turn, `O=C(NCc1cn2ccccc2n1)c1ccc(Br)o1` had a z-score of 0.0012.

`Cc1cc(Oc2ccccc2)nc(N)n1` displayed a z-score of -0.402.

On to `CN1CCN(C(=O)c2cc3ccccc3oc2=O)CC1`, for which the z-score was 0.00294.

On to `CCOc1ccc(Br)cc1-c1noc(-c2cccs2)n1`, for which the z-score was -0.00383.

The molecule `Cc1cccc(C)c1Nc1ncnc(N)c1[N+](=O)[O-]` registered a z-score of -0.246.

In turn, `CCOC(=O)c1c(CSc2ccccc2)oc2ccc(O)cc12` displayed a z-score of -0.248.

`Cc1c(NC(=O)C(C)OC(=O)[C@@H](NC(=O)c2ccccc2)C(C)C)c(=O)n(-c2ccccc2)n1C` (stereo partly drawn) yielded a z-score of -0.264.

As for `Cc1ccc(CNC(=O)c2cn(C3CCCC3)c(=O)c3c2c2ccccc2n3C)o1`, the z-score is -2.41.

As to `Cn1c(=O)[nH]c(=O)c2c1nc(Br)n2CC(O)c1ccccc1` (stereo not drawn), the z-score worked out at 0.0963.

For `COc1ccc(C)cc1S(=O)(=O)Nc1cccc(Cl)c1Cl`, the z-score was active: 3.68.

The molecule `COc1ccc(/C=C/c2nc(-c3ccccc3O)n[nH]2)cc1` displayed a z-score of -0.343.

As to `CC(C)NC(=O)CCCc1cn(C)c2ccccc12`, the z-score turned out to be 0.0315.

`CCn1nc(CC(=O)Nc2nnc(CC(=O)N3CCCCC3)s2)c2ccccc2c1=O` came in with a z-score of -0.638.

Consider `S=c1[nH]nc2c3c4c(sc3ncn12)CCCC4`, for which the z-score turned out to be 0.594.

Take `CCN(CC)c1ccc(-c2nn3c(-c4cccnc4)nnc3s2)cc1`: the z-score was -0.482.

The molecule `COC(=O)C1=CN(Cc2cccs2)C=C(C(=O)OC)C1c1cccc(OC)c1OC` gave a z-score of 0.516.

Regarding `S=C(NCc1ccc2c(c1)OCO2)NCc1ccc2c(c1)OCO2`, the z-score amounted to 0.252.

As to `Cc1nn(C)c(C(=O)Nc2cccc(CN3CCOCC3)c2)c1Br`, the z-score was -0.375.

With `Cc1ccc(NC(=O)COc2cccnc2[N+](=O)[O-])cc1S(=O)(=O)N1CCCCC1`, the z-score was active: 4.45.

In turn, `O=C(CSc1ccc2nnc(-c3cccnc3)n2n1)N1CCOCC1` came in with a z-score of -0.013.

Molecule `CCN(CC)C(=O)C(=O)N/N=C/c1ccc(Br)cc1` registered a z-score of 0.0116.

`O=C(C1CC1)N1CCN(C(c2ccccc2)c2ccccc2)CC1` showed a z-score of -0.356.

`S=c1[nH]nc(-c2cc(-c3ccco3)[nH]n2)n1-c1ccccc1`: the z-score was -0.141.

Molecule `CC1CCCC(C(=O)O)N1C(=O)CCSSCCC(=O)N1C(C)CCCC1C(=O)O` (stereo not drawn) gave a z-score of -0.536.

For `Cc1cc(=O)oc(C)c1C(=O)NCCN1CCOCC1`, the z-score amounted to 0.00346.

The molecule `CCOC(=O)c1c(C)n(C)c2cc(OCCN(CC)CC)ccc12` displayed a z-score of 0.358.

Regarding `C/C(=N\NC(=O)c1ccco1)c1ccc(NC(=O)c2cccs2)cc1`, the z-score was -0.261.

On to `O=C(COC(=O)CNC(=O)C1CCCCC1)Nc1ccc2ccccc2c1`, for which the z-score was -0.285.
